# According to publication PMC4336329 (PLoS ONE, 2015):
# Among all 310,000 compounds or so, about 14,000 (4.5%) showed an effect of 50% or more. Effects have a minus sign here. Some of the results follow.
# Biological target: human ether-à-go-go-related gene (hERG) potassium channel (human, UniProt Q12809)
# Assay: primary screen, population patch clamp on CHO cells stably expressing hERG
# 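Further: peak tail current of the secondary pulse compared with the same well before compound.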
# Sequence of human ether-à-go-go-related gene (hERG) potassium channel (Q12809 whole entry, looked up): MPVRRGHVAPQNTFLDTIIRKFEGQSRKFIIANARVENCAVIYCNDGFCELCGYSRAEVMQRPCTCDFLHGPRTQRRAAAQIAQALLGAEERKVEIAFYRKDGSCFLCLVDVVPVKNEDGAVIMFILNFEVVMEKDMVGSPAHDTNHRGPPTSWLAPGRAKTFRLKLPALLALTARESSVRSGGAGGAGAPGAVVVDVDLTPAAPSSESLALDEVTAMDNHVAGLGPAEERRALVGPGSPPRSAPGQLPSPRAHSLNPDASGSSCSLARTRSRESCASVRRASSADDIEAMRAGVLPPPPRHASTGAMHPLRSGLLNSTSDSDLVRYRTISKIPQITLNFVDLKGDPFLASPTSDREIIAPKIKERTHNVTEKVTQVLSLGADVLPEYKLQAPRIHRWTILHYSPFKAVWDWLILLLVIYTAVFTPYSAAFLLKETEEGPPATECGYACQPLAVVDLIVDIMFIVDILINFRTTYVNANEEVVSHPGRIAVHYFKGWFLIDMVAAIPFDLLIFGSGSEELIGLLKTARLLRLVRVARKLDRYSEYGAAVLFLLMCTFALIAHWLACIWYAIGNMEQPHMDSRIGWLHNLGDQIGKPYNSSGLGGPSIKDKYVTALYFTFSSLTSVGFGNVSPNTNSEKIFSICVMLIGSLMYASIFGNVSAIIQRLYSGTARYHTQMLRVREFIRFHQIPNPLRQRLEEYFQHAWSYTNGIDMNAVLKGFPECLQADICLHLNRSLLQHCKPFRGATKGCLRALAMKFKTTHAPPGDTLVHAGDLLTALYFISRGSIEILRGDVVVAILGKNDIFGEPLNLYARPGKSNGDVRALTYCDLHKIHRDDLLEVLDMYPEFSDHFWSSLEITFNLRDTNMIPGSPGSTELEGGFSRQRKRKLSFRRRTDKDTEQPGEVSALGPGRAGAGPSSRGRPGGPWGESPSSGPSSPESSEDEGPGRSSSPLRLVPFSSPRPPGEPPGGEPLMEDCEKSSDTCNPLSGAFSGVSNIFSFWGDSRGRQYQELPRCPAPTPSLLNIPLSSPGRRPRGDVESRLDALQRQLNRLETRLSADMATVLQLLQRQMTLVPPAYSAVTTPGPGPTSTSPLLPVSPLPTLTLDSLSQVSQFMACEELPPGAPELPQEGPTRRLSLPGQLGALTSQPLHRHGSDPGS
row,Structure (SMILES),"hERG current change (%, negative = inhibition) at 10uM [%]"
1,COC(=O)c1cccc(NC(=O)c2cc(OC)c(OC)c(OC)c2Br)c1,8.4
2,Cc1ccnc(NC(=O)c2cc3c(=O)oc4ccc(C)cc4c3s2)c1,11.1
3,COc1ccc(/C=N/n2c(C)cc(C)c(C(N)=O)c2=O)cc1,12.2
4,CC(=O)c1ccc(NC(=O)C2(c3ccccc3)CCOCC2)cc1,-0.205
5,CCCOc1ccc(C(=O)NCCc2ccccc2)cc1,-27.8
6,COc1ccc(C(CC(=O)N2CCCCC2)c2c(OC)cc(OC)c3ccc(=O)oc23)cc1 (stereo not drawn),4.39
7,CCOc1ccc(S(=O)(=O)N(CC(=O)N/N=C/c2ccc(-c3ccc([N+](=O)[O-])cc3)o2)c2ccccc2)cc1,0.347
8,NC(=O)c1ccc(NC(=O)CNCc2ccccc2Cl)cc1,8.82
9,O=C(NCc1ccc2c(c1)OCO2)c1nnc(Cc2ccc(Cl)cc2)o1,10.5
10,COc1cc(/C=C/C(=O)NC(=O)c2ccccc2O)ccc1O,3.33
11,CC(/C=N/NC(=O)Cn1cnc2ccccc21)=C\c1ccccc1,7.61
12,Cc1ccc(Cc2nnc(SCC(=O)Nc3ccc(C)cc3C)[nH]c2=O)cc1,5.33
13,COc1ccc2nc(/N=C/c3c(O)n(-c4cccc(Cl)c4)c(=O)[nH]c3=O)sc2c1,2.53
14,CCOc1ccccc1NC(=O)CSc1nc2ccccc2c(=O)n1CC1CCCO1 (stereo not drawn),-68
15,CCCCC(Sc1nc(N)c(NC(=O)c2ccc(OCC)cc2)c(=O)[nH]1)C(=O)O (stereo not drawn),10.5
16,O=C(Cn1nc(-c2ccccc2Cl)ccc1=O)Nc1ccccc1-c1ccccc1,-22.2
17,C/C(=N\NC(=O)CNC(=O)c1ccc(Br)cc1)c1ccco1,5.38
18,Cc1cc(C)n(-c2nnc3n2N=C(c2c[nH]c4ccccc24)CS3)n1,2.71
19,COc1ccc(/C=C2\N=C(SC)N(c3ccccc3OC)C2=O)cc1,-4.47
20,CCOc1cc(/C=C2/SC(=S)N(C)C2=O)ccc1Oc1ccc([N+](=O)[O-])cc1[N+](=O)[O-],15
21,Cc1sc(/C=C2\C(=O)ON=C2c2ccccc2)cc1Br,14.8
22,CCN(CC)S(=O)(=O)c1cc(Br)c(C)cc1OC,-27.4

row,Structure (SMILES),"hERG current change (%, negative = inhibition) at 10uM [%]"
1,O=C(O)c1cn(C2CC2)c2cc(N3CCN(S(=O)(=O)c4ccc5c(c4)OCCO5)CC3)c(F)cc2c1=O,15.8
2,O=C(Nc1csc([N+](=O)[O-])c1)Nc1c(Cl)cccc1Cl,5.87
3,O=C(NC(=S)Nc1ccc(S(=O)(=O)N2CCOCC2)cc1)c1ccccc1[N+](=O)[O-],15.8
4,CCCCCCc1cc2cc(C(=O)Nc3ccc(OC)cc3)c(=O)oc2cc1O,5.95
5,COC(=O)Cc1ccc(NC(=O)c2ccc(Br)o2)cc1,-4.22
6,Cc1ccc(N2CC(C(=O)NC3=NCCS3)CC2=O)cc1 (stereo not drawn),9.51
7,COc1ccc(C(=O)Nc2ccc(OCC(F)(F)C(F)F)c(C(F)(F)F)c2)cc1OC,3.72
8,O=C(N/N=C/c1ccc([N+](=O)[O-])o1)c1ccc(O)cc1,8.14
9,O=C(O)C1CCCN(C(=O)NCc2ccccc2)C1 (stereo not drawn),11.2
10,CCC1=Nc2cc(C(=O)NCCCOC)ccc2Sc2ccccc21,-9.35
11,COc1cc(S(=O)(=O)N2CCN(c3ccccc3)CC2)ccc1Cl,19
12,O=C1CCC(C(=O)NCc2ccc3c(c2)OCO3)N1 (stereo not drawn),8.37
13,O=C(Nc1ccc2c(c1)OCCO2)c1cc2sccc2n1Cc1ccccc1,-0.576
14,O=C(NCCN1C(=O)S/C(=C\c2ccc(OC(F)F)cc2)C1=O)[C@@H]1CCCN1C(=O)c1cccs1,-63.5
15,CCN(CC)C(=O)CSc1nnc(CNc2ccc(F)cc2)o1,1.13
16,Cn1c(SCc2cccc(Br)c2)nnc1-c1ccncc1,-17.1
17,S=C(NC1CCCCC1)N1CCc2[nH]c3ccccc3c2C1,12.3
18,Cl.Fc1ccc(CNC2CN3CCC2CC3)cc1 (stereo not drawn),-4.96
19,CCC1=C(OC(=O)N(CC)CC)N2C(=O)OC(=NCCc3c[nH]c4ccccc34)[C@]2(Cc2ccccc2)[C@H]2C1=CC[C@H]1C(=O)N(CC)C(=O)[C@H]12,10.8
20,NC(N)=NC1=NC(=O)/C(=C/c2ccccc2-n2cccn2)S1,19.1
21,Cn1c2c(c(=O)n(C)c1=O)CN(CC1CCCO1)CN2 (stereo not drawn),9.87
22,Brc1ccc(CN2C3=NCCCN3c3ccccc32)cc1.Cl,-74.2

row,Structure (SMILES),"hERG current change (%, negative = inhibition) at 10uM [%]"
1,C=CCNC(=O)c1ccc([N+](=O)[O-])c(Cl)c1,-2.24
2,Cc1ccc(C)c(Cn2cnc3c(oc4ccccc43)c2=O)c1,11.2
3,O=C(COc1ccc2ccccc2c1)Nc1ccccc1C(=O)O,26.6
4,COc1ccc(C2N(c3ccccc3)C(=O)C2(F)F)cc1OC (stereo not drawn),-5.59
5,Clc1ccccc1C(c1ccccc1)(c1ccccc1)n1ccnc1,-10.4
6,COCCNc1oc(-c2ccccc2Cl)nc1C#N,-13.3
7,O=C(CN1C(=O)c2ccccc2S1(=O)=O)NC1CCCCCC1,-1.49
8,Cc1ccc(-c2nn(Cc3ccccc3)cc2C(=O)N2CCN(c3ccccn3)CC2)cc1,-28.7
9,Cc1ccc(CCNC(=O)C2CCCN(c3ncnc4c3nc3n4CCCCC3)C2)cc1 (stereo not drawn),-28.7
10,O=C(OCc1nnc(-c2ccccc2)o1)c1cc(Cl)ccc1[N+](=O)[O-],13
11,CNC(=O)c1[nH]cnc1C(=O)Nc1ccccn1,12.9
12,CCC(=O)Nc1c2c(nn1-c1ccc(C)cc1)CS(=O)(=O)C2,4.91
13,COc1cccc(OC)c1C(=O)NNC(=O)c1ccccc1-n1cccc1,31
14,C=CCSc1nc2c(c(=O)[nH]c(=O)n2C)n1CC,-1.39
15,COc1ccc(S(=O)(=O)N2CCN(C/C=C/c3ccccc3)CC2)cc1NC(C)=O,-77.9
16,Cc1cc(C)n(CC(=O)N/N=C/c2cccc([N+](=O)[O-])c2)n1,-13.6
17,COc1cccc(NC(=O)CN(C)C(=O)CCNC(=O)c2ccccc2Cl)c1,5
18,Cc1nc(C)n(CC(O)COc2ccc(C(=O)c3ccccc3)cc2)n1 (stereo not drawn),-6.4
19,COc1ccc(C2C(=O)N(C3CCCCC3)CC(=O)N2CC2COc3ccccc3O2)cc1 (stereo not drawn),-21.1
20,CN1C(=O)C(=Cc2ccc(N3CCOCC3)c([N+](=O)[O-])c2)C(=O)N(C)C1=O,11.4
21,COc1ccc(CCNC(=O)Cn2cnc3scc(-c4ccccc4)c3c2=O)cc1OC,8.19
22,O=C(O)Cc1sc(-c2ccc(C(=O)O)cc2)nc1-c1ccccc1,19.1

row,Structure (SMILES),"hERG current change (%, negative = inhibition) at 10uM [%]"
1,CS(=O)(=O)N(CC(=O)NCc1ccccn1)Cc1ccc(Cl)cc1,-4.12
2,CC(C)Cc1cc(C(=O)NCc2cccnc2)no1,2.93
3,Cc1ccc(-n2c(CSc3nc(C)cc(C)n3)nnc2SCC(=O)NCc2ccco2)cc1,-38.7
4,O=C(O)CCCCc1nc2ccccc2s1,-4.44
5,Nc1cc(N)nc(SCC(=O)NNC(=O)Cc2ccccc2)n1,16.2
6,CCCCCOc1ccc(NC(=O)C(=O)NCC2CCCN2CC)cc1 (stereo not drawn),-77.9
7,O=S(=O)(c1ccc(Cl)cc1)N1CCCc2ccccc21,0.861
8,CCOC(=O)CN1CC23C=CC(O2)C(C(=O)Nc2ccc(OCC)cc2)C3C1=O (stereo not drawn),-1.97
9,CS(=O)(=O)c1ccc(Cl)c(NC(=O)C2CC(=O)N(c3ccc4c(c3)OCCO4)C2)c1 (stereo not drawn),11.5
10,O=C1C=C(NCc2ccc(Cl)cc2Cl)C2(CCCCC2)O1,2.49
11,CC(C)C(=O)OCC(=O)NCc1ccccc1Cl,0.409
12,O=C(O)c1cc(Cl)c(Cl)cc1C(=O)N1CCCC1,6.47
13,CC1CCCCN1CCNC(=O)c1ccc2c(=O)n(CCc3ccccc3)c(=O)[nH]c2c1 (stereo not drawn),-38.7
14,CCCNC(=O)Nc1ccsc1C(=O)OC,3.8
15,CCCCC(CC)CN1C(=O)/C(=C/c2ccncc2)SC1=S (stereo not drawn),3.65
16,CC(=O)N1CCc2ccc(S(=O)(=O)N3CCN(C)CC3)cc21,14.8
17,COc1ccc(NS(=O)(=O)c2ccc(NC(=O)c3ccccc3)cc2)nn1,-0.597
18,CCOC(=O)c1c(C)oc2ccc(NS(=O)(=O)c3ccc4c5c(cccc35)C(=O)N4)cc12,-10.9
19,CCCNC(=O)CSC1=N/C(=C/c2ccc(F)cc2)C(=O)N1CC,-9.88
20,CCN(CC(=O)Nc1c(F)cccc1F)C(=O)c1n[nH]c2ccccc12,10.4
21,O=C(Oc1ccc2ccc(=O)oc2c1)c1cccs1,13.2
